# Assay results reported in ChEMBL document CHEMBL4888484, “Replenishing the malaria drug discovery pipeline: Screening and hit evaluation of the MMV Hit Generation Library 1 (HGL1) against asexual blood stage Plasmodium falciparum ,using a nano luciferase reporter read-out” (2022).
# About 410 (8.5%) of roughly 4,800 compounds showed an effect of 50% or more. Some of the results follow.
# Test system: Plasmodium falciparum
# Assay: Confirmatory screen in NF54 pLDH assay, in single point, at 2uM, 72h
# Format: functional, Erythrocyte
# Settings: timepoint 72 hour
row,SMILES,% Inhibition [%]
1,COc1cc(C(=O)Nc2nnc(-c3ccc(C)s3)[nH]2)on1,9
2,COc1ccc2c(c1)OC13CCN(C)CC1C2C(C(=O)c1ccccc1OC)C(=O)N3 (configuration not stated),10
3,Nc1ccc2c(N3CCC(C4OCCO4)CC3)ncnc2n1,5
4,Cc1ccnc(N2CCN(S(=O)(=O)Cc3ccon3)CC2)c1,15
5,CC#CCCC(=O)Nc1ccc(OC)cc1,4
6,N#Cc1ccc(NCc2nccc(N)n2)nc1,13
7,Cn1ncc(NC(=O)Cn2nc(C(F)F)c(Cl)c2C2CC2)c1C(=O)N1CCCCC1,5
8,CCN1CCN(c2cccc(NC(=O)c3ccc4[nH]c5ccccc5c(=O)c4c3)c2)CC1,100
9,Cc1c(N2C(=O)c3ccc(Cl)cc3C2=O)c(=O)n(-c2ccccc2)n1C,-2
10,COCCNC(=O)c1ccc(-n2nc(-c3nnc(C)o3)c(C)c2-c2ccc(OC)cc2)cc1,16
11,O=S(=O)(Cc1ccccc1)N1CCC(OCCOc2ccc(F)cc2)CC1,11
12,O=C(COc1ccc(Cl)cc1)n1c2ccccc2c2ccccc21,7
13,COc1ccc(NC(=O)CCC(=O)c2ccc3c(c2)OCCCO3)cc1,-9
14,C[C@@H](CNC(=O)c1ccncc1F)c1nc2ccccc2s1,7
15,O=C(c1nnn(-c2ccccc2Cl)c1-c1cccnc1)N1CCC(Cc2ccccc2)CC1,-8
16,CCC(C)NCC(O)Cn1c(-c2ccccc2)c(-c2ccccc2)c2cc(C)ccc21 (configuration not stated),92
17,COc1ccc([C@H]2[C@H](C(=O)NCc3ccc(C)o3)CCC(=O)N2C)cc1,-20
18,O=C1NC(=O)C2(CCN(C(=O)C3CC4CCC3C4)CC2)N1 (configuration not stated),9
19,COc1ccc(-n2nnnc2[C@@H](NCCc2c[nH]c3ccccc23)C(C)C)cc1,7
20,O=C(CCc1ccccc1)N[C@@H](c1ccccc1)c1ccc2c3c(cccc13)CC2,-21
21,Cn1ncn(CC(=O)c2cccc(Cl)c2Cl)c1=O,-14
22,CC(=O)N[C@@H]1CN(Cc2nccn2Cc2ccccc2)C[C@H]1c1nccn1C,12
23,O=C(NCc1cccc(C(F)(F)F)c1)c1csc(C(=O)NC2CCCC2)n1,-3
24,O=C1O[C@H](N2CCc3ccccc3C2)c2ccccc21,5
25,O=C(NC1CCCCC1)c1nn(-c2ccccc2)c(=O)c2ccccc12,-12
26,Cc1nc(NC(=O)N2CCOCC2CC(O)c2cccs2)sc1C (configuration not stated),4

row,SMILES,% Inhibition [%]
1,COc1ccc(-c2noc(Cn3c(=O)c4ccccc4n(CC(=O)Nc4cc(C)ccc4C)c3=O)n2)cc1,3
2,COc1ccccc1CN(C(=O)c1ccc(C)cc1)c1ccc(CC(=O)NCCN2CCCCC2)cc1,40
3,O=c1c2ccccc2ncn1S(=O)(=O)c1ccc(Cl)cc1,17
4,Cc1c(CCNC(=O)NCC2CC23CCc2ccccc23)cnn1C (configuration not stated),3
5,Cc1cc(=O)[nH]c(-n2nc(C3CC3)cc2NC(=O)c2ccc(C(C)(C)C)cc2)n1,52
6,COc1cc(NCC(=O)NC(N)=O)cc(OC)c1OC,-9
7,CCn1ncc(CN2CC[C@@H]3C(=O)NCCCCCCN(Cc4ccncc4)[C@@H]3C2)c1C,35
8,COc1ccc(N(C(=O)c2ccccc2)C2CC(C)N(C(=O)c3ccccc3)c3cc(OC)c(OC)cc32)cc1OC (configuration not stated),13
9,CC[N+](C)(CC)CCOc1cc(C)c2ccccc2n1,40
10,CC(C)(C)CC(=O)NC[C@H]1OC[C@@H](NC2CCCC2)[C@@H]1O,7
11,O=C(NC[C@H]1CCCO1)c1cc(C(=O)C2CC2)c[nH]1,-8
12,Cc1nc(NC(=O)c2ccn(COc3ccc(F)c(Cl)c3)n2)sc1C,-8
13,CCn1ccnc1C(=O)Nc1ccc(OC)nc1,7
14,CCOC(=O)N1CCN(C(=O)C2[C@H]3C(=O)N(c4ccc(OC)cc4)C[C@]34C=C[C@H]2O4)CC1 (some centres not stated),2
15,O=C(O)c1cc(-c2ccc3c(c2)OCCO3)nc2c(Br)cc(Br)cc12,3
16,CCOc1cccc(-c2ccc3nc(-c4cccc(OC)c4)c(CCC(=O)NCCN4CCCC4)n3c2)c1,31
17,Cn1ccnc1CCNC(=O)C(=O)Nc1cc(F)c(F)c(F)c1,-12
18,Cn1c2ccc(Br)cc2c2cc(NS(=O)(=O)c3ccccc3)ccc21,3
19,O=C(NCCc1cc(F)cc(F)c1)C1CC2CCC1C2 (configuration not stated),10
20,COC(=O)C[C@H](CC(C)C)c1c(O)n[nH]c1C,-10
21,COc1ccc(-c2nn3c([C@H]4CCCN(C)C4)nnc3s2)cc1Cl,4
22,c1cn(CCCOc2ccc3c(c2)OCO3)nn1,2
23,Cn1nc(C2CC2)c2c(C(F)F)cc(-c3ccc4c(c3)OCO4)nc21,2
24,CN(CC(=O)NCc1ccco1)c1nnc(N2CCCC2=O)s1,5
25,O=C1CCc2cc(OS(=O)(=O)c3ccc(F)cc3)ccc2N1,9
26,O=C1C[C@@H](C(=O)N2CCC3(CCCCC3)C2)CCN1,10

row,SMILES,% Inhibition [%]
1,CN(C(=O)[C@@H]1CCCN1C(=O)OC(C)(C)C)c1nccs1,0
2,COc1ccc(-n2ncc(Oc3cccc(C)c3)c(Nc3cccc(C(=O)NCc4ccc(F)cc4)c3)c2=O)cc1,30
3,Cn1cccc1CNCc1ccncc1,7
4,CC(C)c1c2cc3c(cc2nn1-c1ccccc1)OCCO3,-11
5,NS(=O)(=O)c1ccc(CCNc2nc(-c3ccccc3)nc3ccccc23)cc1,5
6,Oc1c(-n2cncn2)cnc2ncnn12,1
7,COc1ccc(-c2c[n+](-c3ccc(Cl)cc3)c3n2CCCCC3)cc1,57
8,COC(=O)[C@]1(C)CN(C(=O)NCc2cc(C#N)ccc2F)C[C@H]1C,11
9,Fc1ccc(-n2ncc3c(N4CCC[C@H]4c4cccs4)ncnc32)cc1,2
10,CN1CCN(C2(CNc3ccnc4ccccc34)CCCC2)CC1,98
11,CC(C)c1nn(C)cc1NS(=O)(=O)CCCC(F)(F)F,8
12,Cc1nc(-c2ccc(NCc3cc4ccccc4o3)nc2)[nH]c(=O)c1C,-12
13,C[C@H]1CS(=O)(=O)C[C@H]1NC(=O)Nc1ccc2ccoc2c1,1
14,C[C@H](Oc1ccccc1)C(=O)N1CCC(c2nc(-c3ccc4c(c3)OCO4)no2)CC1,10
15,Cc1cccc(NC(=O)c2c(C)sc3ncnc(N4CCCCC4)c23)c1,9
16,OCCN(Cc1nc2ccccc2o1)c1ccc(Br)cc1,1
17,Cc1nn(Cc2ccccc2)c2c1C(c1cccc(Cl)c1Cl)c1c(C)nn(Cc3ccccc3)c1O2,9
18,Cc1ccc(-c2noc(CCC(=O)NC3CCCCC3)n2)c(=O)n1C(C)C,1
19,c1cncc(OCc2cnc3ccccn23)c1,-10
20,C[C@H](N)c1ccc(Nc2ncc3cc(-c4ccncc4)ccc3n2)cc1,101
21,O=C(O)C1C2CC2CN1C(=O)c1ccc(Cl)cc1Cl (configuration not stated),-14
22,CC(C)(C)c1cc(NC(=O)c2ccccc2F)n([C@H]2CCS(=O)(=O)C2)n1,-7
23,O=C(c1ccccc1)c1ccc(O)c(CN2CCCN(c3ccc(C(F)(F)F)cn3)CC2)c1O,80
24,N#Cc1cccc(CNC2CCCCCC2C(N)=O)c1 (configuration not stated),1
25,Cc1cc(=O)[nH]c(-n2nc(C3CC3)cc2NC(=O)C(c2ccccc2)c2ccccc2)n1,87
26,O=C(Nc1ccc(N2CCC(N3CCCCC3)CC2)cc1C(=O)O)c1ccccc1Cl,10

row,SMILES,% Inhibition [%]
1,Oc1ccccc1-c1cnc(C(F)(F)F)s1,90
2,O=S(=O)(c1ccccc1)N1CCN(S(=O)(=O)c2ccc(Cl)cc2)C1,11
3,CC(C)(C)OC(=O)NS(=O)(=O)Nc1nccs1,-14
4,N#Cc1cccc(CNc2ccc3c(c2)CCC(=O)N3)c1,-8
5,O=C(Cc1ccc2oc(-c3cccnc3)nc2c1)N1CCN(c2cccc(C(F)(F)F)c2)CC1,-8
6,C[C@](O)(C(=O)NCC(=O)NC1CCCC1)c1ccc(F)cc1,8
7,Cc1ccc(-c2ccnn2C)cc1NC(=O)[C@H]1CCCOC1,13
8,O=C(CN1CCOCC1)N1CCN(CCCOc2ccccc2)CC1,9
9,Cc1nc(CN2C(=O)C(=O)c3cc(Br)ccc32)cs1,9
10,Cc1ccc(N2C[C@@H](c3nnc(N)o3)CC2=O)cc1,8
11,Cc1ccc(N2CCCC2)c(C(=O)N2CCN(Cc3c(C)nc4cc(C)ccn34)CC2)c1,2
12,COc1ccc(-[n+]2c(-c3ccc(-c4ccccc4)cc3)cn3c2COCC3)cc1,60
13,CN1CCCN(c2ccc(NC(=O)c3cccc(Cl)c3)c(C(=O)O)c2)CC1,-7
14,N#Cc1cc(C(=O)N[C@H]2CCCOCC2)ccn1,2
15,Cc1cc(C)n(-c2ccc(CN3C(=O)NC4(CCCC4)C3=O)cc2)n1,6
16,CN(Cc1ccc(F)cn1)c1ccn(C)n1,8
17,COc1cc(OC)cc(N2CCN(C(=O)c3cccc(F)c3)[C@@H](C)C2=O)c1,-19
18,Clc1cccc(-c2c[nH]c([C@@H]3COCCN3C3CCOCC3)n2)c1,-16
19,Cc1[nH]c2nc3ccccc3n2c(=O)c1Cc1ccccc1Cl,-15
20,Cc1c(NS(=O)(=O)c2ccc(Cl)cc2)c(-n2cnnc2)nn1C,1
21,O=C(Nc1ccc(F)c(Cl)c1)c1ccn(COc2ccccc2Cl)n1,-2
22,Cn1ncc(Br)c1C(=O)N1CCc2ccccc2C1,12
23,COc1ccc(-c2nccn3cc(C(=O)N4CCCCCC4)nc23)cc1,4
24,Cc1cccc(NC(=O)Cn2ccc(C(=O)Nc3cccc(C)c3C)n2)c1C,-11
